Laboratory results: the supplement of paper PMC12217912
Some of the results follow. Sequences were assembled here from the parent chain. Inactive controls read about 0.05.

B1: TEV protease; numbered along this chain (parent)
chain: MGESLFKGPRDYNPISSSICHLTNESDGHTTSLYGIGFGPFIITNKHLFRRNNGTLVVQSLHGVFKVKDTTTLQQHLVDGRDMIIIRMPKDFPPFPQKLKFREPQREERICLVTTNFQTKSMSSMVSDTSCTFPSGDGIFWKHWIQTKDGQCGSPLVSTRDGFIVGIHSASNFTNTNNYFTSVPKNFMELLTNQEAQQWVSGWRLNADSVLWGGHKVFMVKPEEPFQPVKEATQL

Variants of: B1
Assay: raw area under fraction-flipped curve 0-4 h after induction (AUC4h, not background-subtracted), DNA-recorder readout of cleavage of the substrate (dimensionless); higher = more cleavage of the substrate by the protease variant
Conditions: temperature: 34 °C; time window: 0-4 h after rhamnose induction
Experimental: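 In vivo DNA recorder in E. coli TOP10(DE3) ΔrhaA at 34 °C. Each TEVp single-site mutant (parent TEVp 0) is paired with a single-site variant of the 7-mer TEVs (canonical ENLYFQ|S). The substrate sits between flexible linkers in a Bxb1-sfGFP-TEVs-SsrA fusion, so cleavage stabilises Bxb1 and speeds flipping of a recombination array, read by NGS. The value is the raw area under the fraction-flipped curve over 0-4 h after rhamnose induction (AUC4h), with ≥20 reads per time point. It is not background-subtracted; inactive controls average about 0.047.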
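Further: Bxb1 expression induced with 0.2% (w/v) L-rhamnose at OD600 near 0.5, cultures sampled hourly, flipped fraction per protease–substrate barcode pair counted by paired-end Illumina sequencing.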

Row | Variant | area with substrate ENLYFAS | area with substrate ENLYFCS | area with substrate ENLYFDS | area with substrate ENLYFES | area with substrate ENLYFFS | area with substrate ENLYFHS | area with substrate ENLYFIS | area with substrate ENLYFKS | area with substrate ENLYFLS | area with substrate ENLYFMS | area with substrate ENLYFNS | area with substrate ENLYFPS | area with substrate ENLYFRS | area with substrate ENLYFSS | area with substrate ENLYFTS | area with substrate ENLYFVS | area with substrate ENLYFWS | area with substrate ENLYFYS | area with substrate ENLYFGS
1 | P89Q | 0.0481 | 0.0501 | 0.0454 | 0.0541 | 0.0598 | 0.0657 | 0.0465 | 0.0553 | 0.0579 | 0.0557 | 0.0584 | 0.0258 | 0.0583 | 0.0684 | 0.056 | 0.0559 | 0.0738 | 0.0542 | 
2 | T129N | 0.0741 | 0.0594 | 0.064 |  | 0.0539 |  | 0.0491 | 0.0611 | 0.0612 | 0.0734 |  | 0.0553 | 0.0631 | 0.0525 |  |  | 0.0578 | 0.0501 | 
3 | T129G | 0.0549 | 0.0509 | 0.0605 | 0.0722 | 0.0603 |  | 0.0556 |  |  |  |  | 0.0469 |  | 0.0546 |  |  |  |  | 
4 | E103R | 0.0592 | 0.0648 | 0.0625 | 0.0656 | 0.0731 | 0.0653 | 0.0692 | 0.059 | 0.0559 | 0.0485 | 0.0619 | 0.0654 | 0.0726 | 0.0692 | 0.0596 | 0.0318 | 0.0571 | 0.0452 | 
5 | L73N | 0.0592 |  |  |  |  |  | 0.0438 |  |  | 0.0576 | 0.0595 | 0.0604 | 0.0663 |  | 0.0472 | 0.0602 |  |  | 
6 | Q75I | 0.0653 |  | 0.0676 | 0.0748 | 0.0707 |  | 0.0669 | 0.0786 | 0.0666 | 0.0463 |  | 0.0568 | 0.065 | 0.0541 |  |  |  | 0.0594 | 
7 | K120S | 0.0579 | 0.0576 | 0.0631 | 0.0548 | 0.0684 | 0.0626 | 0.0573 |  | 0.056 | 0.0646 | 0.0515 | 0.0586 | 0.0574 |  | 0.0628 |  | 0.0655 | 0.0557 | 
8 | P94F | 0.0553 |  |  | 0.163 |  |  | 0.0685 |  |  |  |  | 0.055 | 0.0414 |  |  |  |  | 0.0489 | 
9 | P94S | 0.0633 | 0.0573 |  | 0.0651 | 0.0676 |  | 0.0598 | 0.0524 |  | 0.066 | 0.0606 | 0.0538 |  |  | 0.0623 | 0.0595 | 0.0701 | 0.0564 | 
10 | F101R | 0.0385 | 0.0499 | 0.0394 | 0.0836 |  |  | 0.043 |  |  | 0.0565 | 0.0493 | 0.0503 |  |  | 0.058 |  | 0.0389 | 0.0309 | 0.0475
11 | F101L | 0.041 |  |  | 0.0497 | 0.0643 | 0.0209 | 0.0594 |  |  | 0.0667 | 0.0663 | 0.0638 |  | 0.0501 | 0.0759 |  | 0.0488 | 0.0992 | 
12 | T119V | 0.0573 |  |  |  |  |  | 0.05 | 0.0625 | 0.0597 | 0.0635 | 0.067 | 0.0687 |  |  | 0.0594 |  |  | 0.0506 | 
13 | T119D | 0.0606 |  |  | 0.0503 |  | 0.0747 |  | 0.0664 |  | 0.0632 |  | 0.0651 |  |  | 0.0519 | 0.0637 | 0.0663 |  | 
14 | P96I | 0.0499 | 0.0524 | 0.0563 | 0.0812 | 0.0705 |  | 0.0497 | 0.0376 | 0.0444 | 0.0519 |  | 0.0608 | 0.053 | 0.0475 | 0.0355 |  |  | 0.0567 | 
15 | H76K | 0.0466 | 0.0543 | 0.0526 |  | 0.0637 | 0.0999 |  |  | 0.0617 | 0.0603 | 0.0415 | 0.0626 |  |  |  | 0.0448 | 0.0614 |  | 
16 | S124H | 0.0701 |  | 0.077 | 0.0651 | 0.0664 |  | 0.0573 |  | 0.0045 | 0.0641 |  | 0.0519 | 0.0631 |  | 0.0537 |  | 0.0523 |  | 
17 | T115L | 0.0656 | 0.0596 |  |  | 0.0683 | 0.0513 | 0.0385 |  |  | 0.0837 |  |  | 0.0694 | 0.0618 | 0.0518 | 0.0557 |  | 0.05 | 
18 | Q74A | 0.062 | 0.0601 | 0.0492 | 0.0401 | 0.0645 |  | 0.0578 |  | 0.0533 | 0.0711 | 0.0596 | 0.0624 | 0.051 | 0.062 | 0.0572 | 0.0603 | 0.0544 |  | 0.0589
19 | Q74M | 0.0512 |  | 0.0654 | 0.0692 | 0.0684 | 0.0466 | 0.0592 |  |  | 0.0621 |  |  |  |  | 0.0451 |  | 0.0572 |  | 
20 | Q74K | 0.0526 |  |  | 0.0656 | 0.0685 | 0.0626 | 0.0561 |  |  | 0.0589 | 0.0204 |  |  |  | 0.0649 | 0.0603 | 0.0444 |  | 
21 | Q74Y | 0.0497 |  | 0.058 | 0.0673 |  | 0.0651 | 0.0655 | 0.0638 |  |  | 0.052 | 0.0675 | 0.0562 |  | 0.0672 |  |  | 0.0574 | 
22 | Q118I | 0.0602 |  | 0.0542 | 0.0706 | 0.0748 |  | 0.0627 | 0.0654 |  |  | 0.0634 | 0.0534 | 0.0545 |  |  | 0.128 | 0.0619 |  | 
23 | Q118P | 0.0745 |  |  |  | 0.0675 | 0.052 | 0.0499 | 0.0525 | 0.0475 | 0.0635 | 0.0845 | 0.0586 | 0.0641 | 0.0661 |  | 0.0449 | 0.0479 | 0.0533 | 
24 | Q118K | 0.0637 |  |  | 0.0597 | 0.0477 |  |  |  | 0.0746 |  | 0.0567 | 0.0668 | 0.0714 |  | 0.0597 | 0.0705 | 0.0616 |  | 
25 | Q105S | 0.0337 | 0.0677 | 0.101 | 0.0681 | 0.0748 |  | 0.0617 | 0.0697 |  | 0.0591 |  |  | 0.0614 | 0.0675 |  |  |  |  | 
26 | Q105P | 0.0594 |  |  | 0.0547 | 0.0699 | 0.0553 | 0.0448 | 0.055 | 0.0543 | 0.0462 | 0.0645 | 0.0432 | 0.0576 | 0.0426 | 0.0469 |  | 0.0565 |  | 0.0455
27 | F92I | 0.0548 |  |  | 0.0621 | 0.0596 |  |  | 0.0559 |  | 0.0596 |  | 0.0577 | 0.0689 |  | 0.0668 |  |  |  | 
28 | R81Y | 0.0585 | 0.0578 | 0.0892 | 0.0733 | 0.0658 | 0.0517 | 0.0527 | 0.0534 | 0.0603 | 0.0589 | 0.0551 | 0.0557 | 0.0565 |  | 0.0686 |  |  | 0.0565 | 0.079
29 | I86S | 0.0469 | 0.0497 | 0.0473 | 0.0641 | 0.0684 | 0.058 | 0.0447 | 0.0556 |  | 0.0493 | 0.045 | 0.0574 | 0.0445 |  | 0.0413 | 0.0536 | 0.052 |  | 
